In ChEMBL document CHEMBL4888484, “Replenishing the malaria drug discovery pipeline: Screening and hit evaluation of the MMV Hit Generation Library 1 (HGL1) against asexual blood stage Plasmodium falciparum ,using a nano luciferase reporter read-out” (2022):
The campaign covered roughly 150,000 compounds. About 540 (0.36%) showed an effect of 50% or more. Some of the results follow.

The molecules below were run on Plasmodium falciparum (assay: Primary screen in NF54 nanoGlo assay, in single point, at 2uM, 72h; a lower Z score goes with more inhibition). Conditions: timepoint 72 hour.
Format: functional, Erythrocyte

| SMILES | % Inhibition [%] | Z score |
| --- | --- | --- |
| CCO[C@@H](C)c1noc(CN2CCc3cccc(C)c32)n1 | -6 | 0.96 |
| O=C(NCCOC1CCCCCC1)[C@@H]1CCCc2c(O)cccc21 | 0 | 0 |
| CC(C)(C)n1nc2nc(NCCc3ccccc3)nc(-c3ccccc3)c2c1N | -6 | 0.86 |
| CCN(Cc1ccncc1)C1CN(S(=O)(=O)c2ccccc2)C1 | -4 | 0.73 |
| CC(C)C[C@H](CO)NC(=O)c1cccn1C | -2 | 0.28 |
| Nc1cncc(-c2n[nH]c3cccc(Cl)c23)c1 | -20 | 1.94 |
| N#Cc1cccc(CNc2nnc3n2CCCC3)c1 | -12 | 2.3 |
| CCCC(O)(CCC)CC(=O)N1CC[C@]2(CCOC2)C1 | -2 | 0.21 |
| CCc1cnc(C)nc1N1CCOc2ccccc2C1 | -9 | 1.44 |
| Cc1cc(C2(NC(=O)Nc3cc(-n4cccn4)ccc3C)CCOCC2)on1 | -9 | 1.6 |
| CCOC(=O)c1csc([C@@H]2CCCN2Cc2ncc[nH]2)n1 | -5 | 0.73 |
| CCCn1cc(NC(=O)NCc2nnc3ccccn23)nn1 | 5 | -0.68 |
| c1cncc(-c2nc3nccc(-c4cccnc4)n3n2)c1 | -9 | 1.15 |
| COCCN(Cc1c[nH]nc1-c1ccc(F)cc1)C[C@H]1CCCO1 | -14 | 1.97 |
| Nc1ccc([C@H]2CCCc3nonc32)c2nonc12 | 4 | -0.5 |
| CNC(=O)c1ccc(CN[C@H]2CCCN(c3ccc(C#N)cc3F)C2)cc1 | 1 | -0.15 |
| CO[C@@](F)(C(=O)NCc1ccco1)C(F)(F)F | -17 | 3.24 |
| Cc1ccccc1C(=O)NCc1nc(C(=O)N2CCCC2)c(C)o1 | -10 | 1.31 |
| Nc1nc2c(c(NC3CC3)n1)CCN(C(=O)c1ncoc1C1CC1)CC2 | 4 | -0.71 |
| CCc1ccc(CNCc2c(C(=O)N3CCCCCCC3)nc3ccc(Cl)cn23)nc1 | -15 | 1.59 |
| CCOc1ccc(S(=O)(=O)Nc2ccccc2C(=O)Nc2c(C)n(C)n(-c3ccccc3)c2=O)cc1 | -3 | 0.36 |
| CCC(=O)N1CCc2c(C(=O)NCc3ccc(OC(C)C)cc3)cccc21 | -4 | 0.46 |

| SMILES | % Inhibition [%] | Z score |
| --- | --- | --- |
| COc1cccc(CCn2ccnc2-c2cc3ccc(F)cc3[nH]c2=O)c1 | -2 | 0.26 |
| Cc1cccc(Cl)c1S(=O)(=O)Nc1cc2n(n1)CCCC2 | 1 | -0.14 |
| C=CCCS(=O)(=O)Nc1cccc(C)c1C(C)=O | 5 | -0.97 |
| Cc1ccc([C@@H](O)CNS(=O)(=O)c2c(C)noc2C)o1 | -21 | 3.63 |
| COc1cc(C#N)cc(Br)c1OC(C)C | 8 | -0.86 |
| O=C(NCC1(O)CCOCC1)c1ccc(Br)o1 | 4 | -0.55 |
| Cc1nc2cc(-c3ccc(NS(C)(=O)=O)cc3)ccc2o1 | -9 | 1.04 |
| C[C@@H](COCC(F)(F)F)NC(=O)c1cc(Cl)sc1S(N)(=O)=O | -26 | 3.03 |
| CC(C)(C)NC(=O)NCc1cccnc1-c1cccnc1 | -5 | 0.75 |
| CCc1noc(C)c1C(=O)NC1CCN(C(C)C)CC1 | -15 | 2.84 |
| O=C(C1CCCC1)N1CC[C@@]2(O)CCN(CCCc3cccnc3)C[C@H]2C1 | -1 | 0.25 |
| COC(=O)c1nc2c(nc1N)CC(C)(C)OC2 | 9 | -1.53 |
| CCCC(=O)NC1C(c2ccc(N(C)C)cc2)Nc2ncnn2C1c1ccccc1 (stereo unspecified) | 7 | -0.83 |
| COc1ccccc1Nc1cc(Nc2ccccc2OC)n(C(=O)c2cccs2)n1 | -5 | 0.78 |
| Cc1ncoc1CNS(=O)(=O)N1CC2CCC1C2 (stereo unspecified) | -4 | 0.78 |
| O=C(COc1ccccc1)Nc1ccccc1C(=O)NCCN1CCOCC1 | -5 | 0.55 |
| CC(C)n1nc2c(c1NC(=O)NCC(F)(F)F)CCC2 | 2 | -0.2 |
| C[C@H]1CN(C(=O)C2(CF)CCC2)CC(=O)N1 | -2 | 0.29 |
| C[C@H](NC(=O)CCCn1ccnc1)c1cccc(Cl)c1Cl | -14 | 1.92 |
| CC1OCCC1(O)CNC(=O)C1CC12CCCC2 (stereo unspecified) | -4 | 0.63 |
| CC1CCC(C(=O)Nc2ccccn2)C2C(=O)N(c3ccccc3)C(=O)C12 (stereo unspecified) | -17 | 2.68 |
